This is an account of results in PubChem BioAssay AID488969 (Vanderbilt High Throughput Screening Facility, 2010).

The full ranking holds about 110,000 compounds; the median of “z-score” is about -0.1, and the highest 2% start at about 2. This is one part of the list. Calls of active or inactive are those of the source.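 The calls were made as follows: active = z-score in the third read window above 3 or below -3; inactive = the rest.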

The target of the test is Metabotropic glutamate receptor 8 (Rattus norvegicus) (UniProt P70579). As to the kind of experiment: mGluR8 Gi/Go-coupled signaling modulation – cell-based, rat, thallium flux, HTS, primary screen (AID 488969). Particulars: HEK293 rat mGluR8, GIRK (G protein-gated inwardly rectifying potassium channel) thallium flux, FluoZin2; at 10 µM; stronger effect = higher value; submaximal glutamate (EC20) added with thallium.
Sequence of UniProt P70579 (P70579 whole entry, looked up): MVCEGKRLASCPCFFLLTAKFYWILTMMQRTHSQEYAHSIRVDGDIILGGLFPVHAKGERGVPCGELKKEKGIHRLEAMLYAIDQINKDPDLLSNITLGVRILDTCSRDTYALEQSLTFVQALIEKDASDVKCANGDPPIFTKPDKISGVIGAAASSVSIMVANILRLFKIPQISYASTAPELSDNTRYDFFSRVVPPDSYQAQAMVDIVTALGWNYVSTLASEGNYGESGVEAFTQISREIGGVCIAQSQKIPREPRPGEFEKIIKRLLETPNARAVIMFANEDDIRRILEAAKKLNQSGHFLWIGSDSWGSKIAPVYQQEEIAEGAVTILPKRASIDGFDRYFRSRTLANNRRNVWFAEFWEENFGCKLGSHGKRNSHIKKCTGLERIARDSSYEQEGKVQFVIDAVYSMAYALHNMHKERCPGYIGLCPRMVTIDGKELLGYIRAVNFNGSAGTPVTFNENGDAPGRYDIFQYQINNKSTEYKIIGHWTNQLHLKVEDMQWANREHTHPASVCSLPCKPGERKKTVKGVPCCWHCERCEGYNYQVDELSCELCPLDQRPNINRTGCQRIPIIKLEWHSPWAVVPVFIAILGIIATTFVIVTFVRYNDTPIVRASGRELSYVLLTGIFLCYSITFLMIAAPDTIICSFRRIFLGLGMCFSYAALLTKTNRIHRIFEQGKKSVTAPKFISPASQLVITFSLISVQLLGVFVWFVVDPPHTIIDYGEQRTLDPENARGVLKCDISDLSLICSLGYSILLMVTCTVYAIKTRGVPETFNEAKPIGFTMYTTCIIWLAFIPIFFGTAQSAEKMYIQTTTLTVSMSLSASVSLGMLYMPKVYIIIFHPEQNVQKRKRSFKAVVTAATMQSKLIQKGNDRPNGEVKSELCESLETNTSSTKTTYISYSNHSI
Compound `Cc1ccc(CN2CCN(/N=C/c3ccc(C)s3)CC2)cc1` gave a z-score of -0.944.
The result for `CCOC(=O)/C(C#N)=C/c1c[nH]c2ccccc12` reads -0.126; that for `COC(=O)c1cn(NC(=O)C2CCC(C(C)(C)C)CC2)c(=O)c2ccccc12` (stereo not drawn), -0.41.
The result for `CCCNC(=S)N1CCN(C)CC1` reads 0.0925; that for `COc1cc2c(cc1OC)-c1cc(OCCN3CCOCC3)nc(=O)n1CC2`, -0.0263.
Under `O=C(OCCCCN1C(=O)c2ccccc2C1=O)c1n[nH]c2ccccc12` stands -0.019; under `CC1CCN(C(=O)CSc2nnc(CNC(=O)c3ccco3)o2)CC1`, 2.28.
`O=C(NCC(=O)N(c1cccnc1)C(C(=O)NC1CCCC1)c1ccco1)c1cccs1` (stereo not drawn) yielded a z-score of -0.357.
The result for `CN(C(=O)c1ccccc1Cl)c1ccccc1` reads -0.42.
The result for `CNc1nc(Sc2ccc(C)cc2)cc(C(F)(F)F)n1` reads -0.103; that for `CCc1ccccc1-n1c(SCC(=O)N2CCCC2)nnc1-c1ccccn1`, -0.215; that for `Brc1ccc(-c2csc(/N=C/N3CCOCC3)n2)cc1`, -0.844.
The result for `COC(=O)c1oc2ccc(Br)cc2c1NC(C)=O` reads 0.151.
`O=C(O)C(CC(=O)N1CCOCC1)NCc1ccccc1` (stereo not drawn): the z-score is -0.198.
The result for `CN1CCc2c(sc3c2c(=O)n(-c2cccc(Cl)c2)c2nncn32)C1` reads -0.00151; that for `N#Cc1c(C#N)c(-c2ccccc2)n(-c2ccc(C(=O)O)cc2)c1N`, -0.238; that for `CC1CN(S(=O)(=O)c2ccc(C(=O)Nc3nnc(-c4ccc5c(c4)CCCC5)o3)cc2)CC(C)O1` (stereo not drawn), 2.42.
For `Cc1ccc(N2CC(C(=O)NC3=NCCS3)CC2=O)cc1` (stereo not drawn), the z-score amounted to 1.4.
Under `CCCCNC(=O)Cn1c(=O)n(C)c2ccccc21` stands -0.417; under `Cc1nc2ccccn2c1/C(O)=C1\C(=O)C(=O)N(CCN(C)C)C1c1cccnc1` (stereo not drawn), 0.486; under `O=C(N1CCOCC1)C1(c2ccc(Cl)cc2)CCCC1`, 0.767.
Under `CCn1c(C)nc2cc(C(=O)N=Nc3c(O)[nH]c4c(C)cc(C)cc34)ccc21` stands -0.176.
`CC(=O)N1CCCc2cc(S(=O)(=O)N(C)CCC#N)ccc21` displayed a z-score of -0.413.
Consider `O=C(NC1=NCCS1)c1sc2cc(F)ccc2c1Cl`, for which the z-score was -0.0304.
The result for `CN(C)c1ccc(/C=C/c2nc3ccccc3s2)cc1` reads 0.051; that for `CSc1ccccc1NC(=O)Nc1ccc(Cl)cc1`, active: 6.38.
Take `O=C(c1cccc(F)c1)N1CCc2ccccc21`: the z-score is -0.134.
Under `CC(C)(C)n1nnnc1C(c1ccccn1)N(Cc1ccccc1)Cc1ccc(Cl)cc1` (stereo not drawn) stands -0.111; under `CCNC(=S)NN(c1ccccc1)c1ccccc1`, 0.837.
For `CCc1cc(=O)oc2cc(OCC=C(C)C)ccc12`, the z-score was -0.201.
The result for `CCOc1cc(/C=N/NC(=O)CN2CCOCC2)ccc1OCc1ccccc1` reads -0.0658; that for `COc1ccc(NC(=O)Cc2ccc(Cl)cc2)cc1NC(=O)c1ccco1`, -0.903; that for `CCOC(=O)Oc1ccc2c(c1)C(C)=CC(C)(C)N2C(=O)OCC`, -0.886.
Under `O=C(COc1ccc(Cl)cc1)NCCC1=CCCCC1` stands -0.144; under `COc1cc(/C=N/NC(=O)c2ccc(=O)[nH]n2)ccc1O`, 0.00961; under `COc1ccc(C)cc1NC(=O)c1nnn(Cc2cccc(F)c2)c1N`, -0.0513.
The compound `O=C(CS(=O)(=O)Cc1ccccc1)Nc1ccccn1` yielded a z-score of -0.133.
Under `O=C(Cc1cccs1)Nc1cccc(-c2nc3ccccc3o2)c1` stands 0.0214; under `Cc1ccc(S(=O)(=O)CCCS(=O)(=O)c2ccc(C)cc2)cc1`, 0.0762.
`COc1ccc(N(CC(=O)N/N=C/c2ccc(-c3ccc([N+](=O)[O-])cc3)o2)S(=O)(=O)c2ccc(C)cc2)cc1` returned a z-score of -0.652.
Under `CCn1ccnc1C(O)c1ccccc1OC` (stereo not drawn) stands -0.0835; under `c1ccc(OCc2nn3c(Cn4cnc5ccccc54)nnc3s2)cc1`, -1.54.
Under `O=C(CCCOc1ccccc1)N1CCN(c2ccccc2)CC1` stands -0.161; under `COc1ccccc1-c1nc(C(N)=O)c2[nH]c(=O)n(-c3cccc(C)c3)c2n1`, -0.238; under `COC(=O)c1cc(NS(=O)(=O)c2ccc3c(c2)CCC(=O)N3)cc(C(=O)OC)c1`, -0.762.
The result for `O=C(c1ccco1)N1CCN(c2ncccn2)CC1` reads -0.183; that for `OC(COc1ccc2cc(Br)ccc2c1)CN1CCOCC1` (stereo not drawn), 1.15; that for `NC(=O)CSc1nc2cc([N+](=O)[O-])ccc2n1-c1cccc(C(F)(F)F)c1`, 0.159.
`Cc1ccc(C(=O)CS(C)(=O)=O)cc1`: the z-score was -0.3.
Under `Oc1ccc(C=Nc2ccc3ncccc3c2)c(O)c1` stands -0.168; under `CCC(C)NC(=O)c1ccccc1NC(=O)Nc1ccccc1` (stereo not drawn), active: 6.32.
Under `O=C(CNC(=O)c1cccs1)OCC(=O)c1ccccc1` stands -0.369; under `NC(=O)c1cccc2c3c([nH]c12)CCCC3`, -0.903; under `CC(=O)NCCc1ccc(S(=O)(=O)NCc2ccc3c(c2)OCO3)cc1`, 0.18.
Under `Cc1cc(C(C)(C)C)oc1C(=O)NCCCNC(=O)c1oc(C(C)(C)C)cc1C` stands -0.461.
Compound `COc1ccc(NC(=O)CC2CCCCC2)cc1OC` displayed a z-score of 0.26.
Under `N#CCSc1nc2c(sc(=S)n2Cc2ccco2)c(=O)n1-c1ccc(F)cc1` stands -0.529.
For `Cc1ccc(S(=O)(=O)Cc2sc3ccccc3[n+]2C)cc1`, the z-score is -0.915.
`N#CC1(C#N)C2=C(CCCC2)NC(c2ccccc2)C1(C#N)C#N` (stereo not drawn): the z-score is -0.0942.
For `CCn1c(SCc2ccc(C(=O)Nc3nccs3)cc2)nnc1-c1ccc(NC(C)=O)cc1`, the z-score was -0.264.
Under `CO/N=C/NC(=O)c1cn(-c2ccc(F)cc2)c(=O)c2ccccc12` stands -0.78.
Under `O=C(NC1CCCCC1)C(c1ccco1)N(CCc1ccccc1)C(=O)C(F)(F)F` (stereo not drawn) stands -0.392.
Under `O=S(=O)(c1ccc(Cl)s1)N1CCCc2cccc(O)c21` stands -0.145.
In turn, `O=C(COc1ccc(Cl)cc1)N1CCCC1` gave a z-score of -0.0542.
Under `CC(=O)Nc1ccc(-c2cc3ccccc3o2)cc1` stands -0.217; under `N#Cc1cccc(NC(=O)Nc2cccs2)c1`, 2.55.
The result for `CC(=O)N1c2ccccc2N(Cc2ccc([N+](=O)[O-])cc2)C(=O)C1(C)C` reads -1.64; that for `O=[N+]([O-])c1ccc(-c2cnc(SCc3ccccc3Cl)[nH]2)cc1`, -0.185.
As for `Nc1c(C(=O)OCC2CCCO2)c2nc3ccccc3nc2n1C1CCCC1` (stereo not drawn), the z-score is -2.16.
The compound `O=C(CSc1nnc(-c2ccccc2)n1-c1ccc(Cl)cc1)NC1CCS(=O)(=O)C1` (stereo not drawn) had a z-score of -0.107.
The result for `CCOC(=O)N1CCC(N2Cc3cccc(C(=O)NCc4ccc(C)cc4)c3C2=O)CC1` reads -1.16; that for `COc1ccc(CCNC(=O)c2ccc(CNS(=O)(=O)c3cccc(Cl)c3)cc2)cc1OC`, -0.231.
`COc1ccc(/C=C/C(=O)NCCCc2ccccc2)cc1OC` returned a z-score of -0.525.
